A compilation of properties of binary mixtures (doi:10.1021/je050387r)
The densities may have been worked out from excess volumes.

Experiment: xn = mol fraction of the nth substance listed
Conditions: 101 kPa

CCCC[n+]1ccn(C)c1.F[B-](F)(F)F + O
mass density [kg/m3]
Conditions | x2 = 0 | x2 = 0.1002 | x2 = 0.209 | x2 = 0.2984 | x2 = 0.4001 | x2 = 0.5014 | x2 = 0.6004 | x2 = 0.7 | x2 = 0.8 | x2 = 0.8999
303.15 K | – | – | – | 1188.1 | 1183.3 | 1176.2 | 1167 | 1154.8 | 1134.7 | –
308.15 K | 1195.4 | – | – | 1184.9 | 1180.1 | 1173.1 | 1163.8 | 1151.9 | 1131.9 | 1095.5
313.15 K | – | – | – | – | 1176.7 | – | – | 1148.7 | 1128.9 | 1091.9
318.15 K | 1189 | 1185.3 | 1181.9 | 1178 | 1173 | 1166.2 | – | 1144.8 | 1125 | 1089.9
323.15 K | 1186 | 1182.3 | – | – | – | 1162.8 | 1153.7 | 1141.4 | 1121.7 | –
333.15 K | 1179.8 | 1175.8 | 1172.4 | – | 1163 | 1155.5 | 1146.2 | 1133.1 | 1114.2 | –
343.15 K | 1173.5 | 1169.4 | 1165.8 | – | 1156.1 | 1148.7 | – | – | 1106.8 | –
353.15 K | 1167.4 | – | 1159.5 | 1155.3 | 1149.1 | 1141.7 | – | 1116.3 | 1098.1 | 1064.7

O + CCCC[n+]1ccn(C)c1.F[B-](F)(F)F
x1 = 1
Conditions | mass density [kg/m3]
343.15 K | 977.8
353.15 K | 971.8
